In all, about 110,000 compounds went through this assay and about 230 (0.21%) showed an effect of 50% or more. Some of the results follow. Where a SMILES comes first, the peptide text is derived from it. [ ]: non-standard residue; d: D form. The star is where a group is joined. Phe(4-Me) = Cc1ccc(C[CH](N)C(=O)O)cc1; Bz = O=C(c1ccccc1)*
What follows are compounds tested against DPAP1 (Plasmodium falciparum, UniProt Q8IIJ9) (assay: primary screen, percent inhibition; read by cleavage of a fluorogenic dipeptide substrate; higher = more effect of the substance).
Design: species or system P. falciparum D10 trophozoite lysates; single well
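Further: 30 min substrate incubation versus DMSO and 10 µM JCP410 controls.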

DPAP1, sequence (Q8IIJ9 whole entry, looked up): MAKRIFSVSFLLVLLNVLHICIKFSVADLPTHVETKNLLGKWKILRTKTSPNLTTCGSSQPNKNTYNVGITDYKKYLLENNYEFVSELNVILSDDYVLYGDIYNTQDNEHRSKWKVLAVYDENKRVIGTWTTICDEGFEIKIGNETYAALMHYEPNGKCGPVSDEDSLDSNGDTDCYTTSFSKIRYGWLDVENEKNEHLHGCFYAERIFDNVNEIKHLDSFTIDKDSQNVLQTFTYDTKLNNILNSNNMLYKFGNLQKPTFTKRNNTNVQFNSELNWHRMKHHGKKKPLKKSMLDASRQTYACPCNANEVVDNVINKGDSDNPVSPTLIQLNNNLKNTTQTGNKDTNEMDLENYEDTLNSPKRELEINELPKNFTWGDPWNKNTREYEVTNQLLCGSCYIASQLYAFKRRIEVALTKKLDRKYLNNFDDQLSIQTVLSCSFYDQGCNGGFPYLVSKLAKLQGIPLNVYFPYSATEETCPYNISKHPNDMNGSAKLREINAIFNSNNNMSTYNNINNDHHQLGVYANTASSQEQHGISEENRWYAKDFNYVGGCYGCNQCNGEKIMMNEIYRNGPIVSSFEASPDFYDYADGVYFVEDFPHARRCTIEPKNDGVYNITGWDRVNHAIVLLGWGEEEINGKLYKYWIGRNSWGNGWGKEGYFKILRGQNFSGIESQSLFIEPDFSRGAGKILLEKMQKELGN

Row | SMILES | % Inhibition @ 10 uM
1 | COc1cc(OC)cc(C(=O)N(Cc2nc(-c3ccc(Cl)cc3)no2)C(C)C)c1 | -8.22%
2 | CCN(CC)S(=O)(=O)c1cccc(C(=O)Nc2nc(COc3ccccc3)cs2)c1 | -5.15%
3 | COc1ccc(CNC(=O)c2ccc(CN(c3ccccc3)S(C)(=O)=O)cc2)cc1 | -3.71%
4 | COc1ccccc1C1C(C#N)=C(N)OC2=C1C(=O)CC(c1ccccc1)C2 (stereo not shown) | 3.03%
5 | CC(CCc1ccccc1)NC(=O)c1ccc2ccccc2c1 (stereo not shown) | -1.46%
6 | O=C(O)C1CC=CCC1C(=O)Nc1ccccc1F (stereo not shown) | -2.58%
7 | COc1ccc(CNC(=O)c2cc3sc(Cl)cc3n2C)cc1 | -6.68%
8 | CCC(Oc1ccccc1)C(=O)N1CCN(c2ccc(F)cc2)CC1 (stereo not shown) | -8.46%
9 | Cc1ccc(CC(NC(=O)c2ccccc2)C(=O)NC(CC(C)C)C(=O)O)cc1 (stereo not shown) (Bz-[Phe(4-Me)]-Leu-OH; configuration not given here) | -2.14%
10 | COc1cc(NCCCCCN)c2ncccc2c1 | 2.32%
11 | CC1CCCCC1NC(=O)C1=CCN(S(=O)(=O)c2ccc(Br)cc2)CC1 (stereo not shown) | 5.09%
12 | Cc1ccc(-c2cc(/N=C3/C=C(O)CC(C)(C)C3)[nH]n2)cc1 | -7.35%
13 | O=C(Cc1ccccc1)Nc1cccc(Cl)c1Cl | -2.42%
14 | CC(=O)c1cc(-c2ccccc2)n(CC(=O)N2CC(C)CC(C)C2)c1C (stereo not shown) | 1.27%
15 | COc1ccc(C(CNC(=O)c2oc3ccc(F)cc3c2C)N2CCCCC2)cc1 (stereo not shown) | 1.67%
16 | CC(=O)c1cc(C#N)c(SCc2ccc(F)cc2)nc1C | 1.43%
17 | COc1ccc(N2CCN(c3nc(OC)nc(N4CCOCC4)n3)CC2)cc1 | 9.62%
18 | Cc1cccc(OCC(=O)N(Cc2ccccc2)c2ccccn2)c1C | -3.12%
19 | COc1ccc(NC(=O)CN2C(=O)S/C(=C/c3cccc(O)c3)C2=O)cc1 | 18%
20 | N#CCNC(=O)C(CC(=O)N1CCCCC1)CS(=O)(=O)Cc1ccccc1 (stereo not shown) | -7.21%
21 | CCOc1ccc(NC(=O)CN(c2ccc(F)cc2)S(=O)(=O)c2ccc(C)cc2)cc1 | 12.2%
22 | COc1ccc(NS(=O)(=O)c2ccc(NC(=O)CCC(=O)O)cc2)cc1 | -1.51%
23 | CN1C2CCC1/C(=C\c1ccccc1)C(=O)/C2=C\c1ccccc1 | 1.07%
24 | Cc1ccc(C)n1-c1nnc(N2CCC(C(=O)N3CCC(Cc4ccccc4)CC3)CC2)s1 | 4.22%
25 | CC1CN(Cc2nc3c(c(=O)[nH]c(=O)n3C)n2Cc2ccccc2F)CC(C)O1 (stereo not shown) | 0.44%

Row | SMILES | % Inhibition @ 10 uM
26 | Cc1ccc(CNC(=O)C(=O)NCC(c2cccnc2)N2CCN(Cc3ccccc3)CC2)cc1 (stereo not shown) | -1.94%
27 | CCOc1ccc(C2NCCc3cc(OCC)c(OCC)cc32)cc1OC (stereo not shown) | -2.85%
28 | O=C(NC1CCCc2ccccc21)c1cnn(-c2ccccc2)c1-n1cccc1 (stereo not shown) | -3.58%
29 | N#CCNC(=O)[C@H](CC1CCCCC1)NC(=O)N1CCNCC1 | 1.35%
30 | O=C1CC(c2cc3c(cc2Br)OCO3)c2cc3c(cc2N1)CCC3 (stereo not shown) | 6.92%
31 | O=c1[nH]n(-c2ncnc3sc4c(c23)CCCC4)c(=O)c2ccccc12 | 2.79%
32 | CCc1c(C)nc2nncn2c1NCc1ccco1 | 2.54%
33 | C=CCSc1ncc(Cl)c(C(=O)Nc2nnc(SC)s2)n1 | 2.41%
34 | N#Cc1ccc(-c2nnc3n(Cc4ccccc4)c(=O)c4ccccc4n23)cc1 | 1.68%
35 | CCOC(=O)N1CCN(CC(C)CCC=C(C)C)CC1 (stereo not shown) | -2.02%
36 | CCN(CC)C(=O)c1c(-c2ccccc2)oc2ccc(O)cc12 | -2.6%
37 | CCOC(=O)c1cc2c(=O)n3cc(C)ccc3nc2n(CCN2CCOCC2)c1=N | 0.279%
38 | CCOC(=O)N1CCN(C(=O)COc2ccccc2Cl)CC1 | -4.51%
39 | COc1ccc(CN2C(=O)C(C)S/C2=N/N=C/c2ccco2)cc1 (stereo not shown) | -1.47%
40 | COc1ccc(-c2nnc(SCC(=O)N3CCCCC3C)o2)cc1 (stereo not shown) | -3.49%
41 | Cc1cccc(OCC(=O)Nc2sc3c(c2C#N)CCCC3)c1 | -5.63%
42 | O=C(c1cncc(Br)c1)N1CCC(c2c[nH]c3ccccc23)(c2c[nH]c3ccccc23)CC1 | -2.37%
43 | CC1CN=C(Nc2cccc3ccccc23)S1 (stereo not shown) | 6.79%
44 | O=C1C2C3C=CC(C2C(=O)N1C1CCCCC1)C1C2C(=O)N(C4CCCCC4)C(=O)C2C31 (stereo not shown) | -3.45%
45 | CC(C)C[C@H](NC(=O)C1CCNCC1)C(=O)N[C@@H](CCc1ccccc1)C(=O)COC(=O)c1cc(Cl)ccc1Cl | -7.58%
46 | COc1ccc(-c2nn(C)c3sc(C(=O)N4CCN(C5CCCCC5)CC4)cc23)cc1OC | 4.51%
47 | O=c1c2ccccc2nc(CNCc2ccco2)n1-c1ccc(F)cc1 | 1.94%
48 | CCN(CC)C(=O)C1CCCN(Cc2cccc(OC)c2)C1 (stereo not shown) | 1.48%
49 | CN1C(=O)/C(=C/c2cccs2)S/C1=N/c1ccc(Cl)c(C(=O)O)c1 | 0.695%
50 | Cc1ccc(NC(=O)CSc2nc3ccc(N)cc3s2)cc1Cl | 0.726%

Row | SMILES | % Inhibition @ 10 uM
51 | Cc1ccc(CSCc2ccc(C(=O)NCC3CCCO3)o2)cc1 (stereo not shown) | 4.81%
52 | CCN(CC)S(=O)(=O)c1cccc(C(=O)Nc2ccccn2)c1 | -3.66%
53 | CCCN1CCC(NCCN2CCCCC2)CC1 | 2.1%
54 | CCOC(=O)C1=C(C)N=c2s/c(=C\c3cc(Cl)cc(Cl)c3O)c(=O)n2C1c1ccccc1 (stereo not shown) | 26.9%
55 | Cc1ccc(-n2nc3c(=O)n(CCCC(=O)NCC(C)c4ccccc4)nc(C)c3c2C)cc1 (stereo not shown) | -2.31%
56 | O=C(Nc1cccnc1)c1cc2n(n1)C(C(F)(F)F)CC(c1ccc(Br)cc1)N2 (stereo not shown) | 2.99%
57 | CC(C)Nc1nc2c(S(=O)(=O)c3ccccc3)nnn2c2ccc(Cl)cc12 | -1.37%
58 | O=C(CCCn1c(=O)c2sccc2n(CC(=O)NCC2CCCO2)c1=O)NCc1ccco1 (stereo not shown) | -7.15%
59 | Cc1ccccc1-c1nnn(Cc2ccc(Cl)cc2Cl)n1 | 6.22%
60 | COc1ccc(OC)c(CN2CCN(C(=O)C(c3ccccc3)c3ccccc3)CC2)c1 | 5.6%
61 | COc1ccc(N2CCN(S(=O)(=O)c3ccc(OC)c(C)c3)CC2)cc1 | -1.02%
62 | CCN(CC)CCNC(=O)c1sc2nc(C)nc(N3CCCCC3)c2c1C | 4.35%
63 | Fc1ccccc1C1CC(c2ccc(Br)cc2)=NN1c1ccccc1Cl (stereo not shown) | -9.6%
64 | CCN(CC)CCCCOc1ccc(C)cc1C | 1.83%
65 | Cc1nc(S(=O)(=O)NCc2ccccc2Cl)c(C#N)c(C)c1Cl | -3.04%
66 | CCCCN(CCCC)C(=O)Cc1c(O)nc2ccccc2c1O | 0.219%
67 | O=C1c2ccccc2C(=O)N1CC(=O)n1nc(-c2cccnc2)nc1NCc1cccs1 | 2.21%
68 | O=c1ccc2c(o1)/C(=C\C=C(Cl)Cl)CC2 | 3.34%
69 | CCOCCCNC(=O)Cn1ncc2c3ccccc3n(Cc3ccccc3F)c2c1=O | 0.137%
70 | CCCCCC(=O)Nc1nc2ccccc2[nH]1 | 3.05%
71 | Oc1ccccc1CN(Cc1ccccc1)Cc1ccccc1 | -3.96%
72 | O=C(NCCN1CCOCC1)c1ccc(CNC(=O)c2cccc(Br)c2)cc1 | 2.9%
73 | CCN(CC)C(=O)Cn1cnc2c1c(=O)n(C)c(=O)n2C | 6.24%
74 | CCC(=O)Nc1nc2nccc(C)n2n1 | -1.31%
75 | C=CCN1C(=O)C(O)(CC(=O)c2cccs2)c2ccccc21 (stereo not shown) | 1.52%

Row | SMILES | % Inhibition @ 10 uM
76 | CCOc1ccc(CCNC(=O)Cn2nc(-c3ccc(Cl)cc3)ccc2=O)cc1OCC | -1.79%
77 | CCOc1ccccc1C(=O)Nc1ccccc1C(C)C | -2.22%
78 | CC1(C)CCCN(Cc2c(O)ccc3c(O)c(-c4nc5ccccc5s4)c(=N)oc23)C1 | 11.3%
79 | O=C(/C=C1\NCC2c3ccccc3CCN2C1=O)c1ccccc1 (stereo not shown) | -2.45%
80 | CC(C)C[C@H](NC(=O)OCc1ccccc1)C(=O)N[C@H](C#N)CC(=O)OCc1ccccc1 | 14.7%
81 | CCOC(=O)N1CCN(C(=O)Cn2ncc3c2-c2ccccc2OC3)CC1 | 3.32%
82 | CC(C)Sc1oc(-c2cccs2)nc1S(=O)(=O)c1ccc(F)cc1 | -0.58%
83 | COc1cccc(-c2cc(C(=O)N3CC=C(c4ccccc4)CC3)[nH]n2)c1 | 12.6%
84 | CC(C)C(=O)n1nc(-c2ccco2)nc1NCc1cccs1 | -3.24%
85 | COc1ccc(N2C(=O)/C(=C\c3ccc[nH]3)C(=O)NC2=S)cc1 | -2.48%
86 | CC(C)C[C@H](NC(=O)C1c2ccccc2Oc2ccccc21)C(=O)NCC#N | -0.207%
87 | CCN(Cc1ccccc1)C1CCN(Cc2ccccc2)CC1 | -2.18%
88 | CC(=O)Nc1ccc(S(=O)(=O)N[C@@H](CC(C)C)C(=O)NCC#N)cc1 | 0.174%
89 | O=C1c2ccccc2[C@@H]2[C@H]3CCCC[C@]3(O)CCN12 | -1.8%
90 | COc1ccc(Nc2ccc(C(=O)O)cc2[N+](=O)[O-])cc1 | -0.0372%
91 | Cc1cc(C)nc(SCC(=O)Nc2nc3c(s2)C(=O)CC(C)(C)C3)n1 | 3.86%
92 | NS(=O)(=O)c1ccc(CCNC(=O)CCCCCn2c(=O)[nH]c3ccsc3c2=O)cc1 | -2.49%
93 | Cc1cc(Cl)ccc1N1C(=O)C2C3C=CC(C3)C2C1=O (stereo not shown) | -4.13%
94 | COc1ccc(C=C(C#N)C#N)c(OC)c1OC | 0.0345%
95 | CC(C)(C)C(=O)NC(=S)Nc1ccc(Br)cc1 | 1.43%
96 | N#CC1=C(N)OC2=C(C(=O)CC(c3ccco3)C2)C1c1ccc(OCc2ccccc2F)cc1 (stereo not shown) | 2.32%
97 | CC(C)c1cc(C(C)C)c(S(=O)(=O)N2CCN(C/C=C/c3ccccc3)CC2)c(C(C)C)c1 | 4.57%
